Source: ChEMBL document CHEMBL5724801, “EUbOPEN Chemogenomics Library - Multiplex” (2024)
Some entries of the source have several records that differ or are many. Only these are listed. There may be further records. Values given together are repeated measurements across runs, samples, wells, individuals or studies.

Columns and labels:
Format in all cases: toxicity, cell-based
HEK-293T = assay: Multiplex assay against HEK293T; settings: human
Summary of the method: (§1)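 Hoechst33342, BioTracker Green Microtubule Cytoskeleton Dye, MitoTracker Red and Annexin V Alexa Fluor 680 were added to live cells at seeding, and imaging on a CQ1 microscope at 37°C and 5% CO2 followed compound addition. Gating by CellPathfinder machine learning separated cells into Hoechst high-intensity objects or normal cells, then normal cells into healthy, pyknosed or fragmented nuclei, then pyknosed cells into mitotic or apoptotic. Per cents of healthy-nucleus cells are reported for the tubulin, mitochondrial-mass and membrane-permeability phenotypes.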

U2OS = assay: Multiplex assay against U2OS; settings: human; summary of the method: as §1
Fibroblast = assay: Multiplex assay against human fibroblast; summary of the method: as §1
[1] = 48 h, 10 µM, compound concentration 10 uM
[2] = 24 h, 1 µM, compound concentration 1 uM
[3] = 24 h, 10 µM, compound concentration 10 uM
[4] = 12 h, 1 µM, compound concentration 1 uM
[5] = 12 h, 10 µM, compound concentration 10 uM
[6] = 48 h, 1 µM, compound concentration 1 uM

Oc1c(CN2CCN(c3ccccn3)CC2)cc(Cl)c2cccnc12
Population Mitotic Cells (%) (HEK-293T; [1]): 16% and 5%
Population Fragmented Nuclei (%) (U2OS; [2]): 29% and 7%
Population Mitotic Cells (%) (Fibroblast; [3]): 10% and 43%

CN1[C@@H](CC(=O)c2ccccc2)CCC[C@H]1C[C@H](O)c1ccccc1.Cl [LOBELINE HYDROCHLORIDE]
Population Healthy Nuclei (%) (HEK-293T; [4]): 58.64% and 14.18%
Population Tubulin-Different-Phenotype (%) (HEK-293T; [4]): 4.02% and 30%
Population Tubulin-Different-Phenotype (%) (HEK-293T; [5]): 6.99% and 53.12%
Total Cell Count (HEK-293T; [2]): 638 and 149
Population Pyknosed Nuclei (%) (HEK-293T; [6]): 12.62% and 45.14%
Population Tubulin-Different-Phenotype (%) (HEK-293T; [6]): 1.08% and 34.41%
Total Cell Count (HEK-293T; [6]): 1307 and 175
Population Apoptotic (%) (HEK-293T; [1]): 5.32% and 24.76%
Population Pyknosed Nuclei (%) (HEK-293T; [1]): 10.68% and 39.62%
Population Tubulin-Different-Phenotype (%) (HEK-293T; [1]): 2.5% and 42.58%
Total Cell Count (HEK-293T; [1]): 880 and 267
Population Mitochondria Different-Phenotype (%) (U2OS; [5]): 0% and 30.37%
Population Mitochondria Different-Phenotype (%) (U2OS; [3]): 0.19% and 19.63%
Total Cell Count (U2OS; [3]): 592 and 197
Total Cell Count (U2OS; [1]): 1082 and 316
Population Apoptotic (%) (Fibroblast; [2]): 3.92% and 17.24%
Population Apoptotic (%) (Fibroblast; [3]): 6.06% and 33.33%

Cc1nc2ccc(Oc3ccc(F)cc3)cc2c(=O)n1C[C@H]1CCCN(C(C)C)C1.Cl
Population Hoechst High Intensity Objects (%) (HEK-293T; [4]): 6% and 27%
Population Hoechst High Intensity Objects (%) (HEK-293T; [2]): 4% and 22%
Total Cell Count (U2OS; [5]): 268 and 86
Total Cell Count (U2OS; [3]): 297 and 91
Total Cell Count (U2OS; [1]): 380 and 103
Population Membrane Permeable-Phenotype (%) (Fibroblast; [4]): 1% and 21%
Population Membrane Permeable-Phenotype (%) (Fibroblast; [2]): 1% and 19%
Population Mitochondria Different-Phenotype (%) (Fibroblast; [6]): 2% and 13%

COC(=O)C1=C(C)NC(C)=C(C(=O)OC(C)C)C1c1cccc2nonc12 (centres undefined) [ISRADIPINE]
Population Healthy Nuclei (%) (HEK-293T; [4]): 65.02% and 16.79%
Population Tubulin-Different-Phenotype (%) (HEK-293T; [4]): 4.76% and 34.78%
Population Healthy Nuclei (%) (HEK-293T; [5]): 50% and 8.97%
Population Tubulin-Different-Phenotype (%) (HEK-293T; [5]): 7.14% and 71.43%
Total Cell Count (HEK-293T; [2]): 549 and 175
Population Healthy Nuclei (%) (HEK-293T; [3]): 67.92% and 17.82%
Population Tubulin-Different-Phenotype (%) (HEK-293T; [6]): 0.88% and 20.36%
Total Cell Count (HEK-293T; [6]): 1443 and 292
Population Pyknosed Nuclei (%) (HEK-293T; [1]): 13.96% and 48.55%
Population Tubulin-Different-Phenotype (%) (HEK-293T; [1]): 3.36% and 63.56%
Population Fragmented Nuclei (%) (U2OS; [5]): 0.8% and 14.78%
Population Fragmented Nuclei (%) (U2OS; [3]): 3.11% and 13.39%
Population Mitochondria Different-Phenotype (%) (U2OS; [3]): 0.46% and 16.95%
Total Cell Count (U2OS; [6]): 829 and 257
Population Apoptotic (%) (Fibroblast; [5]): 5.36% and 22.45%
Population Apoptotic (%) (Fibroblast; [3]): 1.89% and 19.15%
Population Mitochondria Different-Phenotype (%) (Fibroblast; [6]): 16.11% and 4.19%

CCOC(=O)c1c(/C(C#N)=C\N)c2ccc(Cl)c(Cl)c2n1C
Population Tubulin-Different-Phenotype (%) (HEK-293T; [4]): 2.79% and 31.03%
Population Tubulin-Different-Phenotype (%) (HEK-293T; [5]): 6.95% and 34.04%
Total Cell Count (HEK-293T; [2]): 543 and 155
Population Tubulin-Different-Phenotype (%) (HEK-293T; [6]): 0.71% and 19.7%
Total Cell Count (HEK-293T; [6]): 1633 and 274
Population Tubulin-Different-Phenotype (%) (HEK-293T; [1]): 0.54% and 17.69%
Total Cell Count (HEK-293T; [1]): 1286 and 325
Total Cell Count (U2OS; [4]): 471 and 149
Population Fragmented Nuclei (%) (U2OS; [5]): 1.91% and 12.2%
Total Cell Count (U2OS; [2]): 613 and 182
Total Cell Count (U2OS; [6]): 1136 and 307
Population Apoptotic (%) (Fibroblast; [4]): 3.57% and 14.63%
Population Mitochondria Different-Phenotype (%) (Fibroblast; [6]): 15.15% and 4.02%
Population Tubulin-Different-Phenotype (%) (Fibroblast; [1]): 3.37% and 17.56%

CN(C)C(=O)Cn1cc(-c2ccc(-c3cncc4ccccc34)cc2)cn1
Population Hoechst High Intensity Objects (%) (HEK-293T; [5]): 6% and 19%
Population Mitotic Cells (%) (U2OS; [5]): 33% and 0%
Population Mitotic Cells (%) (U2OS; [1]): 25% and 7%
Population Fragmented Nuclei (%) (Fibroblast; [4]): 10% and 33%
Population Fragmented Nuclei (%) (Fibroblast; [5]): 13% and 40%
Population Membrane Permeable-Phenotype (%) (Fibroblast; [5]): 1% and 18%
Population Fragmented Nuclei (%) (Fibroblast; [2]): 12% and 40%
Population Apoptotic (%) (Fibroblast; [1]): 72% and 12%
Population Mitotic Cells (%) (Fibroblast; [1]): 27% and 87%

O=C(Nc1c[nH]nc1-c1nc2cc(CN3CCOCC3)ccc2[nH]1)NC1CC1 [AT-9283]
Population Mitochondria Different-Phenotype (%) (HEK-293T; [4]): 25% and 8%
Population Tubulin-Different-Phenotype (%) (HEK-293T; [4]): 5.56% and 40%
Population Mitochondria Different-Phenotype (%) (HEK-293T; [5]): 41.43% and 11.76%
Population Healthy Nuclei (%) (HEK-293T; [2]): 54.96% and 15.69%
Population Healthy Nuclei (%) (HEK-293T; [3]): 20.9% and 6.71%
Population Mitochondria Different-Phenotype (%) (HEK-293T; [3]): 32.14% and 10%
Population Pyknosed Nuclei (%) (HEK-293T; [6]): 17.6% and 53.97%
Population Tubulin-Different-Phenotype (%) (HEK-293T; [6]): 5.92% and 65.52%
Population Healthy Nuclei (%) (HEK-293T; [1]): 18.75% and 6%
Population Mitochondria Different-Phenotype (%) (U2OS; [6]): 0.42% and 19.32%
Population Mitotic Cells (%) (Fibroblast; [1]): 56.52% and 8.99%

COc1cc(N2CCN(C)CC2)ccc1Nc1nccc(-c2cn(C)c3cnccc23)n1
Population Healthy Nuclei (%) (HEK-293T; [4]): 64.98% and 11.01%
Population Mitochondria Different-Phenotype (%) (HEK-293T; [4]): 25.53% and 0%
Population Tubulin-Different-Phenotype (%) (HEK-293T; [4]): 10.64% and 33.33%
Total Cell Count (HEK-293T; [4]): 434 and 109
Population Healthy Nuclei (%) (HEK-293T; [5]): 78.66% and 25.56%
Population Mitochondria Different-Phenotype (%) (HEK-293T; [5]): 29.15% and 8.82%
Population Pyknosed Nuclei (%) (HEK-293T; [5]): 19.75% and 69.92%
Population Tubulin-Different-Phenotype (%) (HEK-293T; [5]): 8.5% and 44.12%
Population Pyknosed Nuclei (%) (HEK-293T; [2]): 16.82% and 64.84%
Total Cell Count (HEK-293T; [2]): 648 and 128
Population Pyknosed Nuclei (%) (HEK-293T; [3]): 10.28% and 49.17%
Population Pyknosed Nuclei (%) (HEK-293T; [6]): 11.85% and 38.36%
Population Tubulin-Different-Phenotype (%) (HEK-293T; [6]): 1.68% and 31.52%
Total Cell Count (HEK-293T; [6]): 1115 and 160
Population Tubulin-Different-Phenotype (%) (HEK-293T; [1]): 0.48% and 69.7%
Total Cell Count (HEK-293T; [1]): 480 and 133
Population Mitochondria Different-Phenotype (%) (U2OS; [4]): 0.6% and 35.96%
Population Mitochondria Different-Phenotype (%) (U2OS; [5]): 10.8% and 72.92%
Population Mitochondria Different-Phenotype (%) (U2OS; [2]): 0.5% and 42.96%
Population Mitochondria Different-Phenotype (%) (U2OS; [3]): 7.65% and 67.65%
Population Mitochondria Different-Phenotype (%) (U2OS; [6]): 0.14% and 23.78%
Total Cell Count (U2OS; [6]): 803 and 245
Population Healthy Nuclei (%) (U2OS; [1]): 54.25% and 15.04%
Population Mitochondria Different-Phenotype (%) (U2OS; [1]): 5.56% and 45%
Population Mitotic Cells (%) (U2OS; [1]): 17.27% and 4.35%
Population Fragmented Nuclei (%) (Fibroblast; [5]): 16.67% and 1.17%
Population Fragmented Nuclei (%) (Fibroblast; [3]): 17.01% and 2.69%
Population Apoptotic (%) (Fibroblast; [6]): 0% and 33.33%
Population Apoptotic (%) (Fibroblast; [1]): 33.33% and 10%

C=CC(=O)N1CCC[C@@H](n2nc(C(=O)Nc3ccc(CC(=O)N(C)C)c(C)c3C)c3c(N)ncnc32)C1
Population Membrane Permeable-Phenotype (%) (U2OS; [5]): 1.33% and 11.46%
Population Mitochondria Different-Phenotype (%) (U2OS; [5]): 0.27% and 10.83%
Population Mitochondria Different-Phenotype (%) (U2OS; [3]): 0.84% and 10.99%
Population Apoptotic (%) (Fibroblast; [4]): 2.9% and 20%
Population Apoptotic (%) (Fibroblast; [3]): 5% and 15.38%
Population Mitochondria Different-Phenotype (%) (Fibroblast; [6]): 14.56% and 2.72%
